# Reference: the supplement of paper PMC8728848
# The list shows a part of the results.
# Experiments:
# Assay in all cases: glycan array binding signal (z-score within array); higher = stronger binding
# Details in all cases: glycan notation: IUPAC condensed, linker removed
# [1] = biological target: Neu5Ac(a2-3)Gal(b1-3)GlcNAc(b1-2)Man(a1-3)[GlcNAc(b1-4)][Neu5Ac(a2-3)Gal(b1-3)GlcNAc(b1-2)Man(a1-6)]Man(b1-4)GlcNAc(b1-4)GlcNAc
# Outline: (§1)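 From the Consortium for Functional Glycomics database, 3228 arrays were curated, keeping only those whose protein sequence was available. Binding is given as a within-array Z-score averaged across arrays sharing a protein sequence and across linkers. Negative Z-scores can be read as non-binding.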
# [2] = biological target: Neu5Ac(a2-3)Gal(b1-3)GlcNAc(b1-2)Man(a1-3)[Neu5Ac(a2-3)Gal(b1-3)GlcNAc(b1-2)Man(a1-6)]Man(b1-4)GlcNAc(b1-4)GlcNAc
# Outline: as §1
# [3] = biological target: Neu5Ac(a2-3)Gal(b1-3)GlcNAc(b1-3)Gal(b1-3)GlcNAc
# Outline: as §1
# [4] = biological target: Neu5Ac(a2-3)Gal(b1-3)GlcNAc(b1-3)Gal(b1-4)GlcNAc
# Outline: as §1
# [5] = biological target: Neu5Ac(a2-3)Gal(b1-3)GlcNAc(b1-3)GalNAc
# Outline: as §1
# [6] = biological target: Neu5Ac(a2-3)Gal(b1-3)GlcNAc(b1-4)Gal(b1-4)Glc
# Outline: as §1
# [7] = biological target: Neu5Ac(a2-3)Gal(b1-3)GlcNAc(b1-6)GalNAc
# Outline: as §1
# [8] = biological target: Neu5Ac(a2-3)Gal(b1-3)GlcNAc6S
# Outline: as §1
# [9] = biological target: Neu5Ac(a2-3)Gal(b1-3)[Fuc(a1-4)]GlcNAc
# Outline: as §1
# [10] = biological target: Neu5Ac(a2-3)Gal(b1-3)[Fuc(a1-4)]GlcNAc(b1-3)Gal(b1-3)[Fuc(a1-4)]GlcNAc
# Outline: as §1
# [11] = biological target: Neu5Ac(a2-3)Gal(b1-3)[Fuc(a1-4)]GlcNAc(b1-3)Gal(b1-4)[Fuc(a1-3)]GlcNAc
# Outline: as §1
# [12] = biological target: Neu5Ac(a2-3)Gal(b1-3)[GlcNAc(b1-6)]GalNAc
# Outline: as §1
# [13] = biological target: Neu5Ac(a2-3)Gal(b1-3)[Neu5Ac(a2-3)Gal(b1-4)]GlcNAc
# Outline: as §1
# [14] = biological target: Neu5Ac(a2-3)Gal(b1-3)[Neu5Ac(a2-6)]GalNAc
# Outline: as §1
# [15] = biological target: Neu5Ac(a2-3)Gal(b1-3)[Neu5Ac(a2-6)]GlcNAc(b1-3)[Fuc(a1-3)[Gal(b1-4)]GlcNAc(b1-6)]Gal(b1-4)Glc
# Outline: as §1
# [16] = biological target: Neu5Ac(a2-3)Gal(b1-3)]Neu5Ac(a2-3)Gal(b1-4)]GlcNAc
# Outline: as §1
# Neu5Ac(a2-3)Gal(b1-4)Glc = biological target: Neu5Ac(a2-3)Gal(b1-4)Glc
# Outline: as §1
# [17] = biological target: Neu5Ac(a2-3)Gal(b1-4)GlcNAc
# Outline: as §1
# [18] = biological target: Neu5Ac(a2-3)Gal(b1-4)GlcNAc(b1-2)Man
# Outline: as §1
# [19] = biological target: Neu5Ac(a2-3)Gal(b1-4)GlcNAc(b1-2)Man(a1-3)[GlcNAc(b1-2)Man(b1-4)GlcNAc(b1-2)Man(a1-6)]Man(b1-4)GlcNAc(b1-4)GlcNAc
# Outline: as §1
# [20] = biological target: Neu5Ac(a2-3)Gal(b1-4)GlcNAc(b1-2)Man(a1-3)[GlcNAc(b1-4)][Neu5Ac(a2-3)Gal(b1-4)GlcNAc(b1-2)Man(a1-6)]Man(b1-4)GlcNAc(b1-4)GlcNAc
# Outline: as §1
# [21] = biological target: Neu5Ac(a2-3)Gal(b1-4)GlcNAc(b1-2)Man(a1-3)[Neu5Ac(a2-3)Gal(b1-4)GlcNAc(b1-2)Man(a1-6)]Man(b1-4)GlcNAc(b1-4)GlcNAc
# Outline: as §1
binder,measurement,setting,value
"LSECtin (Homo sapiens), Q6UXB4 (protein) MDTTRYSKWGGSSEEVPGGPWGRWVHWSRRPLFLALAVLVTTVLWAVILSILLSKASTERAALLDGHDLLRTNASKQTAALGALKEEVGDCHSCCSGTQAQLQTTRAELGEAQAKLMEQESALRELRERVTQGLAEAGRGREDVRTELFRALEAVRLQNNSCEPCPTSWLSFEGSCYFFSVPKTTWAAAQDHCADASAHLVIVGGLDEQGFLTRNTRGRGYWLGLRAVRHLGKVQGYQWVDGVSLSFSHWNQGEPNDAWGRENCVMMLHTGLWNDAPCDSEKDGWICEKRHNC",glycan array binding signal (z-score),[1],-0.14
same,glycan array binding signal (z-score),[2],-0.132
same,glycan array binding signal (z-score),[3],-0.204
same,glycan array binding signal (z-score),[4],-0.135
same,glycan array binding signal (z-score),[5],-0.119
same,glycan array binding signal (z-score),[6],-0.127
same,glycan array binding signal (z-score),[7],-0.133
same,glycan array binding signal (z-score),[8],-0.147
same,glycan array binding signal (z-score),[9],-0.079
same,glycan array binding signal (z-score),[10],-0.13
same,glycan array binding signal (z-score),[11],-0.099
same,glycan array binding signal (z-score),[12],-0.134
same,glycan array binding signal (z-score),[13],-0.113
same,glycan array binding signal (z-score),[14],-0.171
same,glycan array binding signal (z-score),[15],-0.14
same,glycan array binding signal (z-score),[16],-0.118
same,glycan array binding signal (z-score),Neu5Ac(a2-3)Gal(b1-4)Glc,-0.116
same,glycan array binding signal (z-score),[17],-0.075
same,glycan array binding signal (z-score),[18],-0.127
same,glycan array binding signal (z-score),[19],-0.272
same,glycan array binding signal (z-score),[20],-0.14
same,glycan array binding signal (z-score),[21],-0.133
